# Laboratory results from the supplement of paper PMC4967469.
# pIC50: −log10 of the molar value. IC50 is the fitted dose that halves viability relative to control wells, and lower means more sensitive; a fit beyond the top or the lowest dose is shown as a bound at that dose. AUC, from the same fit, is the share of area under the viability curve across the 256-fold dose range; it is 1 without any effect and falls as sensitivity rises. Where the top dose is marked as inferred, it comes from the curve model; the source does not state it.
# Compound: C=CC(=O)Nc1cccc(Nc2nc(NC3CCC(N(C)C)CC3)nc3c2ncn3C(C)C)c1 [WZ3105]
# Test: Viability of human cancer cell lines after 72 h of drug (GDSC screen)
# Conditions: top dose inferred
# Experimental: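 Human cancer cell lines in 384-well plates, medium with 10% serum, drug for 72 h over a 256-fold dose range (nine 2-fold or five 4-fold steps up to the top dose). Adherent lines were fixed and stained with the nucleic acid dye Syto60, suspension lines read with resazurin; signal relative to control wells, capped at 0 and 100%. One two-parameter sigmoid per drug and line, fitted in a mixed model over all curves with the slope shared within a line.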
Cell Line,AUC,pIC50
"HOP-62 (lung adenocarcinoma, adherent, top dose 1.28 µM)",0.76,6.35
"HOP-92 (large cell lung carcinoma, adherent, top dose 1.28 µM)",0.972,< 5.89
"HOS (osteosarcoma, adherent, top dose 1.28 µM)",0.992,< 5.89
"HPAC (pancreas, adherent, top dose 1.28 µM)",0.726,6.33
"HPAF-II (pancreas, adherent, top dose 1.28 µM)",0.696,6.47
"HSC-2 (head and neck, adherent, top dose 1.28 µM)",0.853,6.05
"HSC-3 (head and neck, adherent, top dose 1.28 µM)",0.891,5.95
"HSC-4 (head and neck, adherent, top dose 1.28 µM)",0.864,< 5.89
"HSC-39 (stomach, suspension, top dose 1.28 µM)",0.908,< 5.89
"HT55 (large intestine, adherent, top dose 1.28 µM)",0.972,< 5.89
"HT (B-cell lymphoma, suspension, top dose 1.28 µM)",0.64,6.73
"HT-3 (cervix, adherent, top dose 1.28 µM)",0.839,6.05
"HT-29 (large intestine, adherent, top dose 1.28 µM)",0.752,6.37
"HT-115 (large intestine, adherent, top dose 1.28 µM)",0.98,< 5.89
"HT-144 (melanoma, adherent, top dose 1.28 µM)",0.981,< 5.89
"HT-1080 (fibrosarcoma, adherent, top dose 1.28 µM)",0.969,< 5.89
"HT-1197 (bladder, adherent, top dose 1.28 µM)",0.971,< 5.89
"HT-1376 (bladder, adherent, top dose 1.28 µM)",0.985,< 5.89
"HTC-C3 (thyroid, adherent, top dose 1.28 µM)",0.946,< 5.89
"HUTU-80 (digestive system, adherent, top dose 1.28 µM)",0.781,6.36
"HeLa (cervix, adherent, top dose 1.28 µM)",0.977,< 5.89
"Hep 3B2_1-7 (liver, adherent, top dose 1.28 µM)",0.977,< 5.89
"Hey (ovary, adherent, top dose 1.28 µM)",0.82,6.17
"Hs633T (fibrosarcoma, adherent, top dose 1.28 µM)",0.989,< 5.89
"Hs683 (glioma, adherent, top dose 1.28 µM)",0.908,< 5.89
"Hs746T (stomach, adherent, top dose 1.28 µM)",0.699,6.45
"Hs766T (pancreas, adherent, top dose 1.28 µM)",0.983,< 5.89

Cell Line,AUC,pIC50
"Hs939-T (melanoma, adherent, top dose 1.28 µM)",0.968,< 5.89
"Hs940-T (melanoma, adherent, top dose 1.28 µM)",0.911,< 5.89
"Hs-445 (Hodgkin lymphoma, suspension, top dose 1.28 µM)",0.66,6.67
"Hs-578-T (breast, adherent, top dose 1.28 µM)",0.986,< 5.89
"HuCCT1 (biliary tract, adherent, top dose 1.28 µM)",0.836,6.01
"HuH-7 (liver, adherent, top dose 1.28 µM)",0.97,< 5.89
"HuO9 (osteosarcoma, adherent, top dose 1.28 µM)",0.753,6.33
"HuO-3N1 (osteosarcoma, adherent, top dose 1.28 µM)",0.831,5.92
"HuP-T3 (pancreas, adherent, top dose 1.28 µM)",0.864,< 5.89
"HuP-T4 (pancreas, adherent, top dose 1.28 µM)",0.573,6.89
"IA-LM (large cell lung carcinoma, adherent, top dose 1.28 µM)",0.788,6.20
"IGR-1 (melanoma, adherent, top dose 1.28 µM)",0.828,6.18
"IGR-37 (melanoma, adherent, top dose 1.28 µM)",0.989,< 5.89
"IHH-4 (thyroid, semi-adherent, top dose 1.28 µM)",0.787,6.35
"IM-95 (stomach, adherent, top dose 1.28 µM)",0.782,6.24
"IMR-5 (neuroblastoma, adherent, top dose 1.28 µM)",0.565,6.94
"IPC-298 (melanoma, adherent, top dose 1.28 µM)",0.855,6.00
"IST-MEL1 (melanoma, adherent, top dose 1.28 µM)",0.799,6.12
"IST-MES1 (mesothelioma, adherent, top dose 1.28 µM)",0.984,< 5.89
"IST-SL1 (small cell lung carcinoma, semi-adherent, top dose 1.28 µM)",0.566,6.91
"IST-SL2 (small cell lung carcinoma, suspension, top dose 1.28 µM)",0.791,6.24
"J82 (bladder, adherent, top dose 1.28 µM)",0.986,< 5.89
"JAR (urogenital system, adherent, top dose 1.28 µM)",0.795,6.24
"JEG-3 (urogenital system, adherent, top dose 1.28 µM)",0.987,< 5.89
"JHH-1 (liver, adherent, top dose 1.28 µM)",0.783,6.23
"JHH-2 (liver, adherent, top dose 1.28 µM)",0.755,6.33
"JHH-4 (liver, adherent, top dose 1.28 µM)",0.987,< 5.89

Cell Line,AUC,pIC50
"JHH-6 (liver, adherent, top dose 1.28 µM)",0.967,< 5.89
"JHH-7 (liver, adherent, top dose 1.28 µM)",0.985,< 5.89
"JHOS-2 (ovary, adherent, top dose 1.28 µM)",0.981,< 5.89
"JHOS-3 (ovary, adherent, top dose 1.28 µM)",0.892,< 5.89
"JHU-011 (head and neck, adherent, top dose 1.28 µM)",0.724,6.47
"JHU-022 (head and neck, adherent, top dose 1.28 µM)",0.913,< 5.89
"JIMT-1 (breast, adherent, top dose 1.28 µM)",0.976,< 5.89
"JJN-3 (haematopoietic neoplasm, suspension, top dose 1.28 µM)",0.661,6.69
"JM1 (B-cell lymphoma, suspension, top dose 1.28 µM)",0.733,6.48
"JSC-1 (B-cell lymphoma, suspension, top dose 1.28 µM)",0.6,6.82
"JURL-MK1 (chronic myeloid leukaemia, suspension, top dose 1.28 µM)",0.699,6.54
"JVM-2 (lymphoid neoplasm, suspension, top dose 1.28 µM)",0.818,6.03
"JVM-3 (lymphoid neoplasm, suspension, top dose 1.28 µM)",0.907,< 5.89
"JiyoyeP-2003 (Burkitt lymphoma, suspension, top dose 1.28 µM)",0.738,6.46
"K2 (melanoma, adherent, top dose 1.28 µM)",0.88,< 5.89
"K5 (thyroid, adherent, top dose 1.28 µM)",0.987,< 5.89
"K-562 (chronic myeloid leukaemia, suspension, top dose 1.28 µM)",0.621,6.77
"KALS-1 (glioma, adherent, top dose 1.28 µM)",0.726,6.34
"KARPAS-45 (lymphoblastic leukaemia, suspension, top dose 10.24 µM)",0.188,7.03
"KARPAS-231 (B-cell leukaemia, suspension, top dose 1.28 µM)",0.491,7.12
"KARPAS-299 (anaplastic large cell lymphoma, suspension, top dose 1.28 µM)",0.723,6.52
"KARPAS-422 (B-cell lymphoma, suspension, top dose 1.28 µM)",0.614,6.79
"KARPAS-620 (haematopoietic neoplasm, suspension, top dose 1.28 µM)",0.657,6.69
"KASUMI-1 (acute myeloid leukaemia, suspension, top dose 1.28 µM)",0.669,6.63
"KCL-22 (chronic myeloid leukaemia, suspension, top dose 1.28 µM)",0.649,6.72
"KE-37 (lymphoblastic leukaemia, suspension, top dose 10.24 µM)",0.177,7.02
